{"source": "paper PMC4336329", "about": "(PLoS ONE, 2015)", "note": "In all, about 310,000 compounds went through this assay and about 2,200 (0.71%) showed an effect of 50% or more. Effects have a minus sign here. The list shows a part of the results."}
{"target": "human ether-à-go-go-related gene (hERG) potassium channel (human, UniProt Q12809)", "sequence (Q12809 whole entry, looked up)": "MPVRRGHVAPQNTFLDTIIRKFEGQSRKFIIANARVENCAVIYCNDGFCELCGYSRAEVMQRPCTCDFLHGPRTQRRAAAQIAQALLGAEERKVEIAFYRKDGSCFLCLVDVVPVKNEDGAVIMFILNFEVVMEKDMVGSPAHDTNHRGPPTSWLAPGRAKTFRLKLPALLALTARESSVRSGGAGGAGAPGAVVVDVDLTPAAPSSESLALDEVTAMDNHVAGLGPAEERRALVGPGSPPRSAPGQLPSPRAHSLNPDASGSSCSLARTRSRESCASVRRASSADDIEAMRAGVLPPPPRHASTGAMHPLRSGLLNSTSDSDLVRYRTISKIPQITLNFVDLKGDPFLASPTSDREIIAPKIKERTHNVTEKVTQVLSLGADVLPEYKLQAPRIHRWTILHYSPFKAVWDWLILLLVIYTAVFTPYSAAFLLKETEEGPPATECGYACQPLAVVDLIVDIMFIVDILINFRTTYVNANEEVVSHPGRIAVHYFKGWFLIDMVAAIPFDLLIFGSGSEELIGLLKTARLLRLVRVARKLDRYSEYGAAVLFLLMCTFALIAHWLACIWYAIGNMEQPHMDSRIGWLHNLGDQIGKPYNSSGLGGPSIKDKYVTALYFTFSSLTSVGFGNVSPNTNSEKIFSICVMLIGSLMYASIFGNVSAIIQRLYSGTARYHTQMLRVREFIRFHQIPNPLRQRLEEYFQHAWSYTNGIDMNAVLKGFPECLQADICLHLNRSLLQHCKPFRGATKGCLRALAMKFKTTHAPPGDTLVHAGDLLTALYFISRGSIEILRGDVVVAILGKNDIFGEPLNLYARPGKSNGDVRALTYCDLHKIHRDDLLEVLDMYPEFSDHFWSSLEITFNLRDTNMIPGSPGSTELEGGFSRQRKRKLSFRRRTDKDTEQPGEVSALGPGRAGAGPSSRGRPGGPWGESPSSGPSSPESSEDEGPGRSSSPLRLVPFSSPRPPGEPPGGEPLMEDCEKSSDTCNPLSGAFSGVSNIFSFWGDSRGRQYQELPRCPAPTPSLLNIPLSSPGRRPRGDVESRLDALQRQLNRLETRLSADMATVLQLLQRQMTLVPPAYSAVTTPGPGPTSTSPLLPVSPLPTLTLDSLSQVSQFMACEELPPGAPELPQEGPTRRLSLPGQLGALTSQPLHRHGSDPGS", "assay": "primary screen, population patch clamp on CHO cells stably expressing hERG", "units": {"hERG current change (%, negative = inhibition) at 1uM": "%"}}
{"compound": "Cc1noc(C(=O)NC2CCCCC2)c1Cl", "hERG current change (%, negative = inhibition) at 1uM": 6.82}
{"compound": "CO/N=C(/CS(=O)(=O)Cc1ccccc1Cl)c1ccc(Cl)cc1Cl", "hERG current change (%, negative = inhibition) at 1uM": 2.6}
{"compound": "Cc1nn(CC(=O)NCc2ccc(OC(C)C)cc2)c(=O)c2cc3occc3n12", "hERG current change (%, negative = inhibition) at 1uM": 12.9}
{"compound": "C=CCn1c(=O)c(C(=O)Nc2cc(C)ccn2)c(O)c2ccccc21", "hERG current change (%, negative = inhibition) at 1uM": 12.1}
{"compound": "COc1ccc(OCCC(=O)OCC(=O)NCc2ccco2)cc1", "hERG current change (%, negative = inhibition) at 1uM": 11.2}
{"compound": "COc1ccc(CNc2nc3ccccc3n2C(C)C)cc1", "hERG current change (%, negative = inhibition) at 1uM": 1.77}
{"compound": "CC(c1n[nH]c(=S)n1-c1ccc(F)cc1)N1CCCCC1", "note": "(centres unmarked)", "hERG current change (%, negative = inhibition) at 1uM": 11.2}
{"compound": "O=C(COC(=O)C1=COCCO1)NC1CCCCC1", "hERG current change (%, negative = inhibition) at 1uM": 15.6}
{"compound": "NC(=O)c1ccc(/C=N/O)[n+](Cc2ccccc2)c1.[Br-]", "hERG current change (%, negative = inhibition) at 1uM": 12.7}
{"compound": "CCn1c(=O)c(C(=O)Nc2ccccc2C)c(O)c2ccccc21", "hERG current change (%, negative = inhibition) at 1uM": 4.51}
{"compound": "CC1=C(C)C(OCCBr)N(c2cc(O)c(Cl)cc2F)C1=O", "note": "(centres unmarked)", "hERG current change (%, negative = inhibition) at 1uM": 8.85}
{"compound": "CN(C)S(=O)(=O)c1ccc(C(=O)NNC(=O)C2COc3ccccc3O2)cc1", "note": "(centres unmarked)", "hERG current change (%, negative = inhibition) at 1uM": 1.67}
{"compound": "O=C(CCC(=O)NNC(=O)c1ccccc1[N+](=O)[O-])NCc1ccccc1", "hERG current change (%, negative = inhibition) at 1uM": 11.8}
{"compound": "O=C(O)c1cc(N/N=C/c2ccc(-c3ccccc3)cc2)ccc1Cl", "hERG current change (%, negative = inhibition) at 1uM": 15.2}
{"compound": "Cc1cccc(NC(=O)NNS(=O)(=O)c2ccc(F)cc2)c1", "hERG current change (%, negative = inhibition) at 1uM": 5.88}
{"compound": "COCCCNC(=O)Cn1c(=O)n(CCCCCC(=O)Nc2ccccc2)c(=O)c2sccc21", "hERG current change (%, negative = inhibition) at 1uM": 14}
{"compound": "N#CCCN(Cc1ccccc1)C(=S)Nc1ccccc1", "hERG current change (%, negative = inhibition) at 1uM": -2.2}
{"compound": "COc1ccc(S(=O)(=O)NCc2ccccn2)cc1OC", "hERG current change (%, negative = inhibition) at 1uM": 13.4}
{"compound": "CN(CCNS(=O)(=O)c1ccc2c(c1)oc(=O)n2C)Cc1ccccc1", "hERG current change (%, negative = inhibition) at 1uM": 3.54}
{"compound": "CN(NC(=O)c1ccccc1Cl)c1ncc(C(F)(F)F)cc1Cl", "hERG current change (%, negative = inhibition) at 1uM": 4.02}
{"compound": "COc1ccc(OCc2cc(C(=O)N(C)C(C)c3ccon3)no2)c(Cl)c1", "note": "(centres unmarked)", "hERG current change (%, negative = inhibition) at 1uM": 6.48}
{"compound": "Cn1c2c(c(=O)n(C)c1=O)CN(Cc1ccco1)CN2", "hERG current change (%, negative = inhibition) at 1uM": 11.1}
{"compound": "Cc1ccc(OCC(=O)NC2CCCC2)c(C)c1", "hERG current change (%, negative = inhibition) at 1uM": 7.07}
{"compound": "CCOc1ccc(NC(=O)[C@@H]2CCCN2C(=O)c2cccs2)cc1S(=O)(=O)N1CCOCC1", "hERG current change (%, negative = inhibition) at 1uM": 20.5}
{"compound": "CC(=O)Nc1cccc(NC(=O)Nc2ccc(C(C)=O)cc2)c1", "hERG current change (%, negative = inhibition) at 1uM": 12.1}
{"compound": "Cc1cc2ncn(S(=O)(=O)c3ccc(F)cc3)c2cc1C", "hERG current change (%, negative = inhibition) at 1uM": 11.3}
{"compound": "CCC(C)C(=O)OCC1(c2ccc(C)cc2OC(=O)C(C)C)CO1", "note": "(centres unmarked)", "hERG current change (%, negative = inhibition) at 1uM": 5.32}
{"compound": "CCN(CC(=O)NC(C)C)C(=O)[C@H](C)NC(=O)c1ccc(Br)cc1", "hERG current change (%, negative = inhibition) at 1uM": -2.68}
{"compound": "CCOC(=O)CC1C(=O)NCCN1S(=O)(=O)c1ccccc1Cl", "note": "(centres unmarked)", "hERG current change (%, negative = inhibition) at 1uM": -4.56}
{"compound": "COC(=O)c1c(C(=O)OC)c(-c2ccc(C)cc2)n2c1CS(=O)C2", "note": "(centres unmarked)", "hERG current change (%, negative = inhibition) at 1uM": 0.467}
{"compound": "Cc1ccc2nc(Cl)c(-c3ccccc3)cc2c1", "hERG current change (%, negative = inhibition) at 1uM": 9.36}
{"compound": "COC(=O)C1C(=O)C2=C(CC1C)NC(C)=C(C(=O)OC1CCCCC1)C2c1ccc(N(C)C)cc1", "note": "(centres unmarked)", "hERG current change (%, negative = inhibition) at 1uM": 12.1}
{"compound": "COc1cc(C(=S)N2CCN(c3cccc(Cl)c3)CC2)ccc1O", "hERG current change (%, negative = inhibition) at 1uM": 13.1}
{"compound": "COc1cc(OC)cc(C(=O)NCC(=O)OCC(=O)Nc2cc(S(C)(=O)=O)ccc2Cl)c1", "hERG current change (%, negative = inhibition) at 1uM": 12.5}
{"compound": "Cc1ccc(Cn2c(=N)c(S(=O)(=O)c3ccc(C)cc3)cc3c(=O)n4ccccc4nc32)cc1", "hERG current change (%, negative = inhibition) at 1uM": 6.66}
{"compound": "CCOC(=O)c1cccc(NC(=O)Cn2nc(C)n3cccc3c2=O)c1", "hERG current change (%, negative = inhibition) at 1uM": 4.49}
{"compound": "O=C(CN1C(=O)C2C3CCC(C3)C2C1=O)Oc1ccc2ccccc2c1", "note": "(centres unmarked)", "hERG current change (%, negative = inhibition) at 1uM": 24}
{"compound": "CCOc1ccc(CCNC(=O)c2cccc(-n3cnnn3)c2)cc1OCC", "hERG current change (%, negative = inhibition) at 1uM": 4.43}
{"compound": "CCN(CC)S(=O)(=O)c1ccc(/C=C/C(=O)Nc2ccccc2N2CCOCC2)cc1", "hERG current change (%, negative = inhibition) at 1uM": 9.27}
{"compound": "N/C(Cc1cccc2ccccc12)=N\\OC(=O)Cc1cccs1", "hERG current change (%, negative = inhibition) at 1uM": 13.7}
{"compound": "Cc1cc(Nc2cccc([N+](=O)[O-])c2)n2c(nc3ccccc32)c1C#N", "hERG current change (%, negative = inhibition) at 1uM": 12.2}
{"compound": "Cc1ccccc1COc1ccc(/C=C(\\C#N)C(N)=O)cc1", "hERG current change (%, negative = inhibition) at 1uM": 17.9}
{"compound": "CCCSc1ccc([C@H]2N[C@@](C)(C(=O)OC)[C@H]3C(=O)N(C)C(=O)[C@@H]23)cc1.O=C(O)C(F)(F)F", "hERG current change (%, negative = inhibition) at 1uM": 11.6}
{"compound": "CC(C)C(NC(=O)c1ccc2c(c1)OCO2)C(=O)N/N=C\\c1ccco1", "note": "(centres unmarked)", "hERG current change (%, negative = inhibition) at 1uM": 3.58}
{"compound": "Cn1cc(C2N3CC4(C)CN2CC(C)(C3)C4=O)c2ccccc21", "note": "(centres unmarked)", "hERG current change (%, negative = inhibition) at 1uM": 15.6}
{"compound": "Cc1ccccc1-c1noc(C2CCCCC2)n1", "hERG current change (%, negative = inhibition) at 1uM": 11.9}
{"compound": "COCCn1c(C)cc(C(=O)COC(=O)c2ccc([N+](=O)[O-])o2)c1C", "hERG current change (%, negative = inhibition) at 1uM": 7.03}
{"compound": "COc1ccc(NC(=O)/C(C#N)=C\\c2cc(C)n(-c3ccc(Oc4ccc([N+](=O)[O-])cn4)cc3)c2C)cc1", "hERG current change (%, negative = inhibition) at 1uM": 15.8}
{"compound": "O=C(Nc1ccc(F)cc1)C(Cc1ccccc1)n1cccc1", "note": "(centres unmarked)", "hERG current change (%, negative = inhibition) at 1uM": 7.17}
{"compound": "C#CCN(C(=O)c1ccc(OC2CCN(C(=O)CCOC)CC2)cc1)C1CCCCC1", "hERG current change (%, negative = inhibition) at 1uM": 13.1}
{"compound": "O=S(=O)(NCc1ccccc1)c1ccc(S(=O)(=O)NCC2CCCO2)cc1", "note": "(centres unmarked)", "hERG current change (%, negative = inhibition) at 1uM": 12.1}
{"compound": "CCCCNC(=O)Oc1cc(CCl)on1", "hERG current change (%, negative = inhibition) at 1uM": 18}
{"compound": "Cc1cc(C)cc(C(=O)OCC(=O)NCc2cccs2)c1", "hERG current change (%, negative = inhibition) at 1uM": 11.8}
{"compound": "O=C1CCN(Cc2ccccc2)CCN1CCOc1ccccc1", "hERG current change (%, negative = inhibition) at 1uM": 5.74}
{"compound": "COc1cc(OC)c(C(=O)NCc2ccc3c(c2)OCO3)cc1OC", "hERG current change (%, negative = inhibition) at 1uM": 4.98}
{"compound": "CC1C(=O)C(C)C(c2ccc([N+](=O)[O-])cc2)NC1c1ccc([N+](=O)[O-])cc1", "note": "(centres unmarked)", "hERG current change (%, negative = inhibition) at 1uM": -4.32}
